System: HBEGF locus
Type: cell-based, human
Conditions: high-throughput screen of dXR repression of the HBEGF gene; change in abundance of each domain in the library before and after diphtheria toxin selection

| Molecule | Log2 (fold change) |
| --- | --- |
| DOMAIN_1578 (protein, listed as Gorilla sp.) MVHGSVTFRDVAIDFSQEEWECLQPDQRTLYRDVMLENYSHLISLAGSSISKPGVITLLEQEKEPWMVVRKETSRWYPDLE | 3.4875 |
| DOMAIN_1790 (protein, listed as Gorilla sp.) MLQTVWFQEPVTFEDVAVYFTQNEWASLHPTQRALYREVMLENYANVTSLSAFPFPKPDLIFQLEQGEAAWGPDPWTLAGG | 3.0669 |
| DOMAIN_1818 (protein, listed as Gorilla sp.) MAAGQREARPQVSLTFEDVAVLFTRDEWRKLAPSQRNLYRDVMLENYRNLLSLGLPFTKPQVISLLQQGEDPWEVEKEGSG | 3.2866 |
| DOMAIN_1822 (protein, listed as Gorilla sp.) MAVDLLSAQERVTFRDVAVFFSQDEWLHLDSAQRALYREVMLENYSILVSLGIPFSMPKLIHQLQQGEDPCMVEREVPSDT | 2.4697 |
| DOMAIN_1870 (protein, listed as Gorilla sp.) MDMAQEPVTFRDVAIYFSREEWACLEPSQRALYRDVMLDNFSSVAALGFCSPRPDLVSRLEQWEEPWVEDWERPELQAVQR | 2.215 |
| DOMAIN_1875 (protein, listed as Gorilla sp.) MAALFLSAPHQAKVTFEDVAVYLSREEWGRLGPAQRGLYRDVMLETYGNLVSLGVGPAGPKPGVISQLERGDEPWVLDVQG | 2.5576 |
| DOMAIN_1893 (protein, listed as Gorilla sp.) MAMSQESLTFKDVFVDFTLEEWQQLDSAQKNLYRDVMLENYSHLVSVGYLVEKPDVIFRLGPGEESWMADGGTPVRTCAGE | 2.3898 |
| DOMAIN_1946 (protein, listed as Pongo sp.) GESLESRVTLGSLTAESQELLTFKDVSVDFTQEEWGQLAPAHRNLYREVMLENYGNLVSVGYQLSKPGVISQLEKGEEPWL | 3.1449 |
| DOMAIN_1952 (protein, listed as Pongo sp.) MANATGSGVEQKFQGSVSFKDVTVGFTQEEWQHLDPSQRALYRDVMLENYSNLVSVGYCVHKPEVIFRLEQGEEPWKLEEE | 3.0762 |
| DOMAIN_1964 (protein, listed as Pongo sp.) MTLLTFRDVAIEFSLEEWKCLDLAQQNLYRDVMLENYRNLFSIGLTVSKPGLITCLEQRKEPWNVKRQEAVDGHPGWCSGV | 2.3009 |
| DOMAIN_2014 (protein, listed as Pongo sp.) APLLAPRPGETRPGCRKPGAVSFADVAVYFSPEEWGCLRPAQRALYRDVMRETYGHLGALGFPGPKPALISWMEQESEAWS | 2.7323 |
| DOMAIN_2034 (protein, listed as Pongo sp.) MHLTAWPQKSVTFEDVAVYFTQAEWDGLSPAQRTLYRDVMLENYGNVASLGFPLLKPAVISQLEGGGELGGPSPLAAGRGL | 3.7415 |
| DOMAIN_2208 (protein, listed as Pongo sp.) MSQVTFSDVAIDFSHEEWACLDSAQRDLYKDVMVQNYENLVSVGLSITKPYVIMLLEDGKEPWMMEKKLSKVYPFPLSHSV | 2.3044 |
| DOMAIN_2223 (protein, listed as Pongo sp.) MAQGLVTFRDVAIEFSLEEWKCLEPAQRDLYREVTLENFGHLASLGLSISKPDVVSLLEQGKEPWMIANDVTGPWYPDLES | 2.6106 |
| DOMAIN_2229 (protein, listed as Pongo sp.) MAQESVMFSDVSVDFSQEEWECLNDDQRDLYRDVMLENYSNLVSMAGHSVSKPNVISYLEQGKEPWLVDRELTRGQWPVLE | 2.9337 |
| DOMAIN_2245 (protein, listed as Pongo sp.) MAHLMMFRDVAVDFSQEEWECLDLEQRDLYRDVMLENYSNMVSLGLCIYQPEAFSLLEKGKDPWKILRDETRRPCPDMQSR | 3.2712 |
| DOMAIN_2255 (protein, listed as Pongo sp.) LAPDDHGSSYEGSVSFRDVAIDFSREEWRHLDPSQRNLYRDVMLETYSHLLSVGYQVPEAEVVMLEQGKEPWALQGERPRH | 3.1952 |
| DOMAIN_2295 (protein, listed as Pongo sp.) HRVGLIRSYNSKTMTCFQELVTFRDVAIDFSRQEWEYLDPNQRDLYRDVMLENYRNLVSLGGHSISKPVVVDLLERGKEPW | 3.2816 |
| DOMAIN_2299 (protein, listed as Pongo sp.) EETQGELTSSCGSKTMANVSLAFRDVSIDLSQEEWECLDPVQRDLYKDVMLENYSNLVSLGYTIPKPDVITLLEQEKEPWI | 2.5125 |

| Molecule | Log2 (fold change) |
| --- | --- |
| DOMAIN_2376 (protein, listed as Pongo sp.) MTKAQESLTLKDVAVDFTWEEWQLLGPAQKRLYRDVMLENYSNLVSVGYQASKPDALTKLEQGEPLWTLEDEIHSPAHPEI | 2.1539 |
| DOMAIN_2391 (protein, listed as Pongo sp.) MINAQELLTLEDVTVEFTWEEWQLLDPFQKDLYRDVTLEIYSNLVSMGYQVSKPDALSKLEQGEEPWTMEDERHSRICPGT | 2.4608 |
| DOMAIN_2398 (protein, listed as Pongo sp.) EGEAQKRKAEESGMPLTQGHLTFRDVAIEFSQEEWKCLDPVQKALYRDVMLENYRNLVSLGICLPDLSIFSMMKQRTESWT | 3.3125 |
| DOMAIN_2470 (protein, listed as Pongo sp.) MNVEVVKVMPQDLVTFKDVAIDFSQEEWQWMNPAQKCLYRSMMLENYQSLVSLGLCISKPYVISLLEQGREPWEMTSEMTR | 2.3815 |
| DOMAIN_2576 (protein, listed as Pongo sp.) MAAVSPTTRCQESVTFEDVAVVFTDEEWSHLVPTQRDLYKEVMLENYNSIVSLGLPVPQPDVIFQLKRGDKPWMVDLHGSE | 3.1733 |
| DOMAIN_2590 (protein, listed as Pongo sp.) MMTAVSLTTRPQESVAFEDVAVYFTTKEWAIMVPAERALYRDVMLENYEAVAFVVSPTSKPALVSHLEQGKESCFTRPQGV | 2.8348 |
| DOMAIN_2744 (protein, listed as Hylobates sp.) MAAGQREARPQVSLTFEDVAVLFTRDEWRKLAPSQRNLYRDVMLENYRNLVSLGLPFTKPKVISLLQQGEDPWKVEKDSSG | 2.863 |
| DOMAIN_2786 (protein, listed as Hylobates sp.) MAAAAALRAHAQSSVTFEDVAVNFSMEEWSLLNEAQRCLYRDVMLETLTLISSLGCWHGGEDEAAPSKQSTCIYIYKEQGG | 2.5449 |
| DOMAIN_2806 (protein, listed as Hylobates sp.) MAAAALVNTPQGHVTFEDIAVYFSQEEWGLLDEAQRCLYHDVMLENFSLMASVGCLHGIEAEEAPSEQTVSAQGASQARTP | 3.1649 |
| DOMAIN_2808 (protein, listed as Hylobates sp.) MAAAALRDPAQQGYVTFEDVAVYFSQEEWRLLDEAQKLLYRNVMLENFSLLASLGLASSKTHEITQLESWEEPFMPAWEVV | 2.6227 |
| DOMAIN_2813 (protein, listed as Hylobates sp.) MAAAALRDPAQQGYVTFEDVAVYFSQEEWRLLDEAQKLLYRNVMLENFSLLASLGLASSKTHEITQLESWEEPFMPAWEAV | 2.9522 |
| DOMAIN_2851 (protein, listed as Hylobates sp.) MSLGSELFRDVAIVFSQEEWQWLAPAQRDLYRDVMLETYSNLVSLGLAISKPDVISFLEQGKEPWMVERVVSRGLCPVLES | 3.3945 |
| DOMAIN_10948 (protein, listed as Colobus angolensis) VQEPVTFKDVAVDFTQEEWGQLDLVQRTLYRDVMLETYGHLLSVGNQIAKPEVISLLEQGEEPWSVEQACPQHTCPEWMRN | 3.2959 |
| DOMAIN_2867 (protein, listed as Hylobates sp.) MALRSVMFSDVSIDFSPEEWEYLDLEQKDLYRDVMLENYSNLVSLGCFISKPDVISLLEQGKEPWKVVRKGRRQYPDLETR | 3.0591 |
| DOMAIN_2888 (protein, listed as Hylobates sp.) MGLLTFRDVAIEFSLEEWQCLDTAQKNLYRNVMLENYRNLAFLGIAVSKPDLIICLEKEKEPWNMKRHEMVDEPPGLAVSN | 2.4267 |
| DOMAIN_2891 (protein, listed as Hylobates sp.) MEPLKFRDVAIEFSLEEWQCLDSIQQNLYRNVMLENYRNLVFLGIAASKPDLIICLEQEKEPWSRKRRRMVAELPVICSHF | 2.7489 |
| DOMAIN_2896 (protein, listed as Hylobates sp.) MGLLTFRDVAIEFSLEEWQCLDTAQQNLYRNVMLENYRNLAFLGIAVSKPDLITCLEQGKEPWNMKRHEMVDEPPGVCPHF | 2.7253 |
| DOMAIN_2904 (protein, listed as Hylobates sp.) MSGPPGSLEMEPLQFRDVAVEFSLEEWHCLDTAQQNLYRDVMLENYRHLVFLGIVVSKPDLITCLEQGKKPLTMKRHEMIA | 2.8035 |
| DOMAIN_2908 (protein, listed as Hylobates sp.) MGPLQFRDVAIEFSLEEWHCLDTAQRNLYRNVMLENYSNLVFLGIVVSKPDLITRLEQGKKPLTMKRHEMVANPSGPGVFV | 2.6452 |

Source: patent publication US12551573B2, “Compositions and methods for the targeting of PCSK9” (Scribe Therapeutics Inc., priority 2022, dated 2026)
